# Experimental data from PubChem BioAssay AID686979 (National Center for Advancing Translational Sciences (NCATS), 2013).
# In all, about 420,000 compounds went through this assay and about 50,000 (12%) were called active. Inconclusive means that the source gave no clear call. Such entries were picked first, then a sample of the others. Calls follow the shape of the dose curve; as a rule, active = well fitted inhibition curve with a large enough effect; inconclusive = small, poorly fitted or top-dose-only effect; inactive = flat fitted curve, though single readings scatter. No potency is given beside an inconclusive call; the fits are too rough.
# Assay: qHTS for Inhibitors of human tyrosyl-DNA phosphodiesterase 1 (TDP1): qHTS in cells in presence of CPT; also: nearly all actives have a fitted effect of over 55% in size
# Conditions: chicken DT40 Tdp1-/-;hTDP1 cells + 20 nM CPT, ATP luminescence, 48 h; series mostly up to 46.2 µM
# In short: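 Chicken DT40 Tdp1-/- cells stably complemented with human TDP1 were seeded at 400 cells/well in medium containing 20 nM camptothecin, exposed to pin-transferred compounds, and grown at 37 °C for at least 48 hr. Viability was read as ATP luminescence.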
# Potency is read from the fitted curve at half-maximal effect; tags tell the direction and shape of the fitted curve.
row,SMILES,Potency
1,CCOc1ccc(C(=O)OCC(=O)N2CC(C)OC(C)C2)cc1OCC (centres undefined),inactive
2,Cc1ccc(CNC(=O)c2cnc(N3CCCC3)nc2C)cc1,inactive
3,CCCNC(=O)c1ccccc1NC(=O)c1ccc2c(=O)n3c(nc2c1)CCC3,"inconclusive [inhibitor, full curve, poor fit]"
4,COc1ccccc1N1CCN(/N=C/c2ccc(Cl)c([N+](=O)[O-])c2)CC1,"inconclusive [inhibitor, single point]"
5,COc1ccccc1N1CCN(Cc2ccco2)CC1,"inconclusive [inhibitor, partial curve]"
6,COc1ccc(N2CCN(CCC(=O)c3ccc4ccccc4c3)CC2)cc1,active: 18.4 µM
7,CCCCN(CC)Cc1ccc(CNC(=O)Nc2ccc(Cl)cc2)o1,active: 3.26 µM
8,Cc1cc(C)cc(C(O)c2ncc(-c3ccccc3F)[nH]2)c1 (centres undefined),"inconclusive [inhibitor, single point]"
9,CC1C(=O)N(Cc2cn(CC3CCCCC3)nn2)CCS(=O)(=O)N1Cc1ccc(-c2cccc(CO)c2)cc1 (centres undefined),active: 14.6 µM
10,O=C1CCCc2ccccc2N1Cc1ccccc1Cl,"inconclusive [inhibitor, single point]"
11,COc1ccc(/C=C/C(=O)c2ccccn2)cc1,active: 20.6 µM
12,CC(C)Oc1ccc(S(=O)(=O)N2CCCCC2)cc1NC(=O)C1CCCC1,"inconclusive [inhibitor, single point]"
13,CN1CCC(N(C)C(=O)c2cc(S(=O)(=O)N(C)c3ccccc3)ccc2Cl)CC1,inactive
14,COc1ccc(C(=S)N2CCN(c3ccccc3C)CC2)cc1OC,"inconclusive [inhibitor, single point]"
15,Cc1cc(C)c2c(NC(=O)c3ccccc3Cl)c(C(=O)Nc3ccc(C)c(C)c3)sc2n1,active: 8.2 µM
16,COc1cccc(OC(=O)N2CCOCC2)c1,inactive
17,CN(C(=O)CSc1nc2ccc(NC(=O)c3ccco3)cc2s1)c1ccccc1,active: 18.4 µM
18,CCn1c(=O)cc(OCC(=O)NCCCN2CCN(c3cccc(Cl)c3)CC2)c2ccccc21,"inconclusive [inhibitor, single point]"
19,CC(C)C[C@@H](C=O)NC(=O)[C@H](CC(C)C)NC(=O)[C@H](CC(C)C)NC(=O)OCc1ccccc1,inactive
20,O=C(C[n+]1cccc(CNC(=O)c2ccc(OC(F)F)cc2)c1)c1ccccc1,inactive
21,O=S(=O)(NCC1CCCO1)c1ccc(-c2ccc(Cl)cc2)cc1 (centres undefined),active: 11.6 µM
22,O=C(NCc1cccnc1)c1cc(C2CCCN(C(=O)CCCc3ccccc3)C2)on1 (centres undefined),"inconclusive [inhibitor, single point]"
23,COCc1cc(C)nc(OCC(=O)N/N=C\c2cc(C)n(-c3cccc(C(F)(F)F)c3)c2C)c1C#N,"inconclusive [inhibitor, single point]"
24,O=C(Nc1cccc(S(=O)(=O)N2CCCCCC2)c1)C1CCN(C(=O)c2ccc(Cl)cc2)CC1,active: 18.4 µM
25,CCC(=O)c1ccc(OCC(=O)Nc2ccc(N3CCOCC3)cc2N2CCOCC2)cc1,inactive

row,SMILES,Potency
1,CS(=O)(=O)N1CC2CCCN2c2cc(C(F)(F)F)ccc21 (centres undefined),inactive
2,COC(=O)C1(C(=O)OC)C[C@H](c2cccs2)N(Cc2ccccc2OC)[C@@H]1c1ccc(F)cc1,active: 14.6 µM
3,CC1CCCN(S(=O)(=O)c2ccc(S(=O)(=O)N3CCCN(Cc4ccccc4)C3)cc2)C1 (centres undefined),active: 16.4 µM
4,CCN(CC)CC(=O)Nc1ccc(-c2ccc(NC(=O)CN(CC)CC)c(OC)c2)cc1OC,active: 13 µM
5,Cc1ccc(C(=O)C[n+]2cccc3cc(C)ccc32)cc1,active: 11.6 µM
6,COCCNC(=O)C(c1ccc(Cl)cc1)N(C(=O)Cn1nnc2ccccc21)c1cccnc1 (centres undefined),inactive
7,CCOC1CCCc2oc(-c3ccsc3)c(-c3cnc(OC)nc3)c21 (centres undefined),"inconclusive [inhibitor, single point]"
8,COc1cc(CNCCSc2nnnn2C)ccc1OCc1ccccc1,"inconclusive [inhibitor, partial curve]"
9,O=C(NN1CCOCC1)c1ccc(Cl)s1,inactive
10,O=C(CN1C(=O)/C(=C\c2cccc(Br)c2)Oc2ccccc21)NCC1CCCO1 (centres undefined),"inconclusive [inhibitor, single point]"
11,CCCC1CC(C)(c2csc(Nc3ccc(OCC)cc3)n2)OC1=O (centres undefined),active: 13 µM
12,CCC1=Nc2cc(C(=O)NC3CCCC3)ccc2Sc2ccc(Cl)cc21,active: 0.92 µM
13,Cc1cc(C)c2nc(SCC(=O)NCCC3=CCCCC3)cc(C)c2c1,"inconclusive [inhibitor, single point]"
14,O=C(NC(NC(=S)Nc1ccccc1O)C(Cl)(Cl)Cl)c1ccco1 (centres undefined),"inconclusive [inhibitor, single point]"
15,COCC(=O)Nc1ccc(-c2cn3cccnc3n2)cc1,"inconclusive [inhibitor, partial curve, poor fit]"
16,CCCCCCCCN1C(=O)[C@H](CC(=O)N2CCSCC2)C[C@@]2(C(=O)OC)CC(C)(C)CC=C12,"inconclusive [inhibitor, single point]"
17,Cc1ccc2cc(CN(Cc3ccco3)C(=O)c3ccco3)c3nnnn3c2c1,"inconclusive [inhibitor, single point]"
18,COc1ccccc1CNc1nc(-c2cccc(C#N)c2)nc2ccccc12,"inconclusive [inhibitor, single point]"
19,CCn1c(SCC(=O)N(C)Cc2ccc(OC)c(F)c2)nc2cc(S(N)(=O)=O)ccc21,inactive
20,CCCNC(=S)Nc1ccc(CC(=O)OC)cc1,inactive
21,Cc1ccc2nc3sc(C(=O)Nc4ccc(F)cc4)cc3cc2c1,"inconclusive [inhibitor, full curve]"
22,Cc1ccc(C(=O)n2c3ccccc3c3ccccc32)cc1,active: 5.8 µM
23,N#C/C(=C\C=C\c1ccccc1)c1nc(-c2ccc3c(c2)OCO3)cs1,inactive
24,O=C(c1cc(-c2ccc(Cl)c(Cl)c2)on1)N1CCCCCC1,"inconclusive [inhibitor, single point]"
